pIC50: −log10 of the molar value. IC50 is the fitted dose that halves viability relative to control wells, and lower means more sensitive; a limit (>, <) means that the fit lies beyond the doses tested. The AUC spans the tested range (256-fold, ending at the top dose) of the same fit; the more sensitive the line, the further below 1. For part of these data: An inferred top dose is not printed in the source and was worked back from the curve model. For part of these data: An entry number marks a drug with two screens in the source, which often give different values.
Key:
Assay in all cases: Viability of human cancer cell lines after 72 h of drug (GDSC screen)
LFM-A13 = compound: C/C(O)=C(\C#N)C(=O)Nc1cc(Br)ccc1Br [LFM-A13]; settings: top dose 16 µM; top dose inferred
Description: (§1)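 Human cancer cell lines in 384-well plates, medium with 10% serum, drug for 72 h over a 256-fold dose range (nine 2-fold or five 4-fold steps up to the top dose). Adherent lines were fixed and stained with the nucleic acid dye Syto60, suspension lines read with resazurin; signal relative to control wells, capped at 0 and 100%. One two-parameter sigmoid per drug and line, fitted in a mixed model over all curves with the slope shared within a line.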

Bicalutamide = compound: CC(O)(CS(=O)(=O)c1ccc(F)cc1)C(=O)Nc1ccc(C#N)c(C(F)(F)F)c1 [Bicalutamide]; settings: top dose inferred
Description: as §1

KIN001-270 = compound: Cc1ccc(Nc2cc(-c3cccc(N4C(=O)c5ccccc5C4=O)c3)ncn2)cc1NS(C)(=O)=O [KIN001-270]; settings: top dose 20 µM; top dose inferred
Description: as §1

AUY922 = compound: CCNC(=O)c1noc(-c2cc(C(C)C)c(O)cc2O)c1-c1ccc(CN2CCOCC2)cc1 [AUY922]; settings: top dose 0.256 µM; top dose inferred
Description: as §1

MP470 = compound: S=C(NCc1ccc2c(c1)OCO2)N1CCN(c2ncnc3c2oc2ccccc23)CC1 [MP470]; settings: top dose 20 µM; top dose inferred
Description: as §1

Gemcitabine = compound: Nc1ccn([C@@H]2O[C@H](CO)[C@@H](O)C2(F)F)c(=O)n1 [Gemcitabine]; settings: top dose 1.024 µM
Description: as §1

T0901317 = compound: O=S(=O)(c1ccccc1)N(CC(F)(F)F)c1ccc(C(O)(C(F)(F)F)C(F)(F)F)cc1 [T0901317]; settings: top dose 10.24 µM; top dose inferred
Description: as §1

TW-37 = compound: CC(C)c1ccccc1Cc1cc(C(=O)Nc2ccc(S(=O)(=O)c3ccccc3C(C)(C)C)cc2)c(O)c(O)c1O [TW-37]; settings: top dose 5 µM
Description: as §1

[1] = top dose 1.024 µM, screen: GDSC drug entry 150
[2] = top dose 10 µM, screen: GDSC drug entry 1502

| Cell Line | AUC (LFM-A13) | pIC50 (LFM-A13) | AUC (Bicalutamide; [1]) | pIC50 (Bicalutamide; [1]) | AUC (Bicalutamide; [2]) | pIC50 (Bicalutamide; [2]) | AUC (KIN001-270) | pIC50 (KIN001-270) | AUC (AUY922) | pIC50 (AUY922) | AUC (MP470) | pIC50 (MP470) | AUC (Gemcitabine) | pIC50 (Gemcitabine) | AUC (T0901317) | pIC50 (T0901317) | AUC (TW-37) | pIC50 (TW-37) |
| --- | --- | --- | --- | --- | --- | --- | --- | --- | --- | --- | --- | --- | --- | --- | --- | --- | --- | --- |
| 769-P (kidney, adherent) | 0.972 | < 4.80 | 0.981 | < 5.99 | 0.978 | < 5.00 | 0.968 | < 4.70 | 0.456 | 7.92 | 0.909 | < 4.70 | 0.079 | > 8.40 | 0.928 | < 4.99 | – | – |
| A549 (lung adenocarcinoma, adherent) | – | – | – | – | 0.966 | < 5.00 | – | – | – | – | – | – | – | – | – | – | 0.287 | 7.14 |
| BICR31 (head and neck, adherent) | 0.971 | < 4.80 | 0.987 | < 5.99 | – | – | 0.978 | < 4.70 | 0.426 | 8.00 | 0.974 | < 4.70 | 0.381 | 7.52 | 0.977 | < 4.99 | – | – |
| BT-549 (breast, adherent) | – | – | – | – | 0.942 | < 5.00 | – | – | – | – | – | – | – | – | – | – | 0.63 | 6.09 |
| CHP-134 (neuroblastoma, suspension) | – | – | – | – | – | – | 0.946 | < 4.70 | – | – | 0.789 | 4.94 | – | – | 0.975 | < 4.99 | – | – |
| CHSA0011 (chondrosarcoma, adherent) | 0.98 | < 4.80 | 0.98 | < 5.99 | 0.941 | < 5.00 | 0.976 | < 4.70 | 0.979 | < 6.59 | 0.97 | < 4.70 | 0.978 | < 5.99 | 0.979 | < 4.99 | – | – |
| COR-L32 (small cell lung carcinoma, suspension) | – | – | – | – | 0.949 | < 5.00 | – | – | – | – | – | – | – | – | – | – | – | – |
| COR-L303 (small cell lung carcinoma, suspension) | – | – | – | – | – | – | 0.987 | < 4.70 | – | – | 0.858 | 4.81 | – | – | 0.912 | < 4.99 | – | – |
| COR-L311 (small cell lung carcinoma, suspension) | – | – | – | – | – | – | 0.984 | < 4.70 | – | – | 0.879 | < 4.70 | – | – | 0.977 | < 4.99 | – | – |
| Caov-3 (ovary, adherent) | 0.991 | < 4.80 | 0.991 | < 5.99 | – | – | 0.984 | < 4.70 | 0.742 | 7.15 | 0.937 | < 4.70 | 0.504 | 7.18 | 0.989 | < 4.99 | – | – |
| EMC-BAC-2 (lung adenocarcinoma, adherent) | – | – | – | – | 0.949 | < 5.00 | 0.982 | < 4.70 | – | – | 0.948 | < 4.70 | – | – | 0.979 | < 4.99 | 0.522 | 6.44 |
| G-MEL (melanoma, adherent) | 0.952 | < 4.80 | 0.973 | < 5.99 | 0.985 | < 5.00 | 0.983 | < 4.70 | 0.909 | < 6.59 | 0.698 | 5.35 | 0.839 | 6.16 | 0.96 | < 4.99 | – | – |
| H2810 (mesothelioma, adherent) | – | – | – | – | – | – | – | – | – | – | – | – | – | – | – | – | 0.625 | 6.14 |
| HCC-366 (non-small cell lung carcinoma, adherent) | – | – | – | – | 0.987 | < 5.00 | – | – | – | – | – | – | – | – | – | – | 0.748 | 5.78 |
| HCT-116 (large intestine, adherent) | 0.985 | < 4.80 | 0.986 | < 5.99 | 0.986 | < 5.00 | 0.951 | < 4.70 | 0.808 | 6.91 | 0.954 | < 4.70 | – | – | 0.915 | < 4.99 | 0.32 | 7.00 |
| Hs940-T (melanoma, adherent) | – | – | 0.977 | < 5.99 | 0.97 | < 5.00 | 0.984 | < 4.70 | – | – | 0.904 | < 4.70 | 0.615 | 6.85 | 0.974 | < 4.99 | 0.573 | 6.28 |
| JHOS-2 (ovary, adherent) | – | – | – | – | 0.98 | < 5.00 | 0.964 | < 4.70 | – | – | 0.925 | < 4.70 | – | – | 0.952 | < 4.99 | 0.477 | 6.57 |
| JHOS-3 (ovary, adherent) | – | – | – | – | 0.974 | < 5.00 | 0.976 | < 4.70 | – | – | 0.95 | < 4.70 | – | – | 0.966 | < 4.99 | 0.811 | 5.44 |
| K-562 (chronic myeloid leukaemia, suspension) | – | – | – | – | – | – | 0.96 | < 4.70 | – | – | – | – | 0.744 | 6.50 | – | – | 0.302 | 7.05 |
| KP-4 (pancreas, adherent) | 0.966 | < 4.80 | 0.988 | < 5.99 | 0.972 | < 5.00 | 0.986 | < 4.70 | 0.544 | 7.68 | 0.36 | 6.28 | – | – | 0.865 | 5.07 | 0.614 | 6.20 |
| LN-229 (glioma, adherent) | 0.98 | < 4.80 | 0.988 | < 5.99 | 0.985 | < 5.00 | 0.976 | < 4.70 | 0.533 | 7.71 | 0.979 | < 4.70 | – | – | 0.987 | < 4.99 | 0.436 | 6.68 |
| MCF7 (breast, adherent) | 0.949 | < 4.80 | – | – | – | – | 0.984 | < 4.70 | 0.314 | 8.33 | 0.491 | 5.93 | – | – | 0.985 | < 4.99 | 0.536 | 6.41 |
| MDA-MB-157 (breast, adherent) | 0.987 | < 4.80 | 0.988 | < 5.99 | 0.983 | < 5.00 | 0.974 | < 4.70 | – | – | 0.985 | < 4.70 | – | – | 0.985 | < 4.99 | 0.662 | 6.05 |

— the supplement of paper PMC4967469
